{"source": "PubChem BioAssay AID504332", "about": "(National Center for Advancing Translational Sciences (NCATS), 2011)", "note": "The whole screen tested about 350,000 compounds, of which about 31,000 (8.9%) were called active. The inconclusive results got no clear call from the source; some entries with a clear call stand among them for comparison. The call rests on the fitted dose curve; in most records, active means well fitted inhibition curve with a large enough effect; inconclusive means small, poorly fitted or top-dose-only effect; inactive means no such curve, though single readings can be large or run the other way. Potencies of inconclusive entries are doubtful fits and often do not repeat. On the % scale 0 is the no-effect control and ±100 the full control effect; potency means the concentration at half of the fitted maximal effect; tags describe the fitted curve by direction and shape.", "data": [{"biological_target": "Histone-lysine N-methyltransferase EHMT2 (Homo sapiens) (UniProt Q96KQ7)", "sequence (Q96KQ7 whole entry, looked up)": "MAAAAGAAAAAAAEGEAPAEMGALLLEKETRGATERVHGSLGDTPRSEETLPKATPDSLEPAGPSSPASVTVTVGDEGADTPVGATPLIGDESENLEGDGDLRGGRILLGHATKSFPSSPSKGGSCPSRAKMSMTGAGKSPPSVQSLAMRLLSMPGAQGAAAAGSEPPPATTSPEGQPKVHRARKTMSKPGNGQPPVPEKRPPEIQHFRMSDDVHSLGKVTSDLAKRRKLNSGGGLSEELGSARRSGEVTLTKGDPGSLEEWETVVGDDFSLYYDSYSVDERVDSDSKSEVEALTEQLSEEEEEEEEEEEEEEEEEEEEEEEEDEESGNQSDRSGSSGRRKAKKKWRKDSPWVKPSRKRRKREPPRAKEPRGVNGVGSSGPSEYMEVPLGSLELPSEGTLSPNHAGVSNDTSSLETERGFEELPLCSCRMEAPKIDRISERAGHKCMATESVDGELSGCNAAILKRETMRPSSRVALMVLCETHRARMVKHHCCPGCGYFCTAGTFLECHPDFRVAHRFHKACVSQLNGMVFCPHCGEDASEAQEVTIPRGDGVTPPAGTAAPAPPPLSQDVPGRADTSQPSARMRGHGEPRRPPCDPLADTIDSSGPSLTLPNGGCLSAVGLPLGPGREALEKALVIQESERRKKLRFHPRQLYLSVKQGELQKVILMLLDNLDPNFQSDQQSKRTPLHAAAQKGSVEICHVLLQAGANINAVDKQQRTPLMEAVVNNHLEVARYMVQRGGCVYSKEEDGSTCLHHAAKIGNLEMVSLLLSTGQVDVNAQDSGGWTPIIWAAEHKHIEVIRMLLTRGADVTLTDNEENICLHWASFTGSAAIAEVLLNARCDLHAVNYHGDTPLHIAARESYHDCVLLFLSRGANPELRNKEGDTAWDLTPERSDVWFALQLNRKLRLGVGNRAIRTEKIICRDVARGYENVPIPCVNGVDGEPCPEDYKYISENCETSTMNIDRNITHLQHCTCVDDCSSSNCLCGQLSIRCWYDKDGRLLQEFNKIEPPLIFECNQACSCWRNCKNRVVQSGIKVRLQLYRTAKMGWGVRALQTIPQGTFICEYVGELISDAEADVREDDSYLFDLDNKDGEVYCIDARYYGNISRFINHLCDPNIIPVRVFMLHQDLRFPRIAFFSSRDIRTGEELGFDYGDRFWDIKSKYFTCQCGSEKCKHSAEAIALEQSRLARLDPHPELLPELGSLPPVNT", "experiment": "qHTS Assay for Inhibitors of Histone Lysine Methyltransferase G9a; further: nearly all actives have a fitted effect of over 75% in size", "details": "G9a H3K9 monomethylation, AlphaScreen, 2 h; activity, negative = inhibition: at 59 µM (top of the series) unless noted", "method_in_brief": "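Using a bead-based AlphaScreen, monomethylated H3K9 product from 2 h room-temperature reactions (G9a 20 nM, peptide 500 nM, SAM 20 uM) was detected with 0.5 ug/mL rabbit anti-H3K9me1 antibody.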", "values": [{"smiles": "Cc1c(CCO)c(=O)n(-c2ccccc2)n1S(=O)(=O)c1ccc([N+](=O)[O-])cc1", "Potency": "inconclusive: 50.1 µM [inhibitor, partial curve, poor fit]"}, {"smiles": "COc1ccccc1-n1c(SCC(=O)N2CCCC2)nnc1-c1ccccc1", "activity, negative = inhibition": "inactive: 1.59% [at 12.7 µM]"}, {"smiles": "Cc1cc(C(=O)Nc2cccnc2)no1", "Potency": "inconclusive: 35.5 µM [inhibitor, single point]"}, {"smiles": "Cc1cccc(N2CCN(Cc3nnc(-c4ccccc4C)o3)CC2C)c1", "note": "(stereo unspecified)", "Potency": "inconclusive: 25.1 µM [inhibitor, single point]"}, {"smiles": "S=C1Nc2ccccc2Sc2ccc(Cl)cc21", "Potency": "inconclusive: 39.8 µM [inhibitor, single point]"}, {"smiles": "CCOc1ccc(CCNC(=O)C2(c3ccccc3)CC2)cc1OCC", "activity, negative = inhibition": "inactive: 27.7% [at 102 µM]"}, {"smiles": "CCN(CC)S(=O)(=O)c1cc(C(=O)Nc2cccnc2Cl)ccc1Cl", "Potency": "inconclusive: 12.6 µM [inhibitor, partial curve, poor fit]"}, {"smiles": "COC(=O)C1CCN(C(c2cccs2)c2sc3nc(C)nn3c2O)CC1", "note": "(stereo unspecified)", "Potency": "inconclusive: 2.82 µM [inhibitor, full curve, poor fit]"}, {"smiles": "COCCNC(=O)C(=O)NNS(=O)(=O)c1ccc2ccccc2c1", "Potency": "active: 39.8 µM"}, {"smiles": "Nc1ccc(Nc2nc(-c3cc4ccccc4oc3=O)cs2)cc1", "Potency": "inconclusive: 79.4 µM [inhibitor, partial curve, poor fit]"}, {"smiles": "CCn1c(-c2cc(C3CC3)nc3ccccc23)n[nH]c1=S", "Potency": "active: 2.24 µM"}, {"smiles": "COc1ccc(C2C(C(=O)N3CCOCC3)CCC(=O)N2c2ccc(OC)cc2)cc1", "note": "(stereo unspecified)", "activity, negative = inhibition": "inactive: -0.907% [at 12.7 µM]"}, {"smiles": "Cc1ccc(C23CC4CC(CC(C(=O)N5CCN(C)CC5)(C4)C2)C3)cc1", "Potency": "inconclusive: 89.1 µM [inhibitor, partial curve, poor fit]"}, {"smiles": "COc1ccc(S(=O)(=O)N2CCN(C3CCCC(C)C3)CC2)cc1", "note": "(stereo unspecified)", "Potency": "active: 7.08 µM"}, {"smiles": "CCc1ccc2[nH]c(=O)c(C(c3nnnn3CCOC)N3CCN(c4ccccc4F)CC3)cc2c1", "note": "(stereo unspecified)", "activity, negative = inhibition": "inconclusive: -74.2% [inhibitor]"}, {"smiles": "O=C(O)c1ccc(OCCn2ccnc2)cc1", "Potency": "inconclusive: 28.2 µM [inhibitor, single point]"}, {"smiles": "CC(=O)N1c2ccc(S(=O)(=O)N3CCCCCC3)cc2CC1C(=O)NCc1ccccc1C", "note": "(stereo unspecified)", "activity, negative = inhibition": "inactive: 11.6%"}, {"smiles": "CCc1ccc2[nH]c(=O)c(C(c3nnnn3CC3CCCO3)N3CCN4CCCC4C3)cc2c1", "note": "(stereo unspecified)", "Potency": "inconclusive: 6.31 µM [inhibitor, single point]"}, {"smiles": "Cc1ccc(NCc2nnc(SCC(=O)Nc3cccc(O)c3)n2CC2CCCO2)c(C)c1", "note": "(stereo unspecified)", "Potency": "active: 56.2 µM"}, {"smiles": "O=C(O)COc1ccc(CCNS(=O)(=O)c2ccccc2)s1", "Potency": "inconclusive: 3.16 µM [inhibitor, partial curve, poor fit]"}, {"smiles": "COc1ccc(C)cc1Nc1n[n+](-c2ccccc2)c(-c2ccc(N(C)C)cc2)s1", "Potency": "active: 50.1 µM"}, {"smiles": "Cn1c(=O)c2ccccc2n(CC(=O)NCCC2=CCCCC2)c1=O", "Potency": "active: 28.2 µM"}, {"smiles": "Cc1cc(C)nc(N/N=C/c2ccc(Cl)cc2)n1", "Potency": "active: 44.7 µM"}, {"smiles": "O=C(O)c1cc(N=Nc2c(O)[nH]c3ccc([N+](=O)[O-])cc23)ccc1Cl", "activity, negative = inhibition": "inactive: -8.24% [at 102 µM]"}, {"smiles": "Cc1ccc(/C=N/NC(=O)c2nc3nc(C)cc(C)n3n2)cc1", "Potency": "inconclusive: 39.8 µM [inhibitor, single point]"}, {"smiles": "O=C(CSc1cnc2ccccc2n1)c1ccc(F)cc1", "Potency": "active: 7.08 µM"}, {"smiles": "COc1ccc(CCNc2oc(-c3ccccc3OC)nc2C#N)cc1OC", "activity, negative = inhibition": "inconclusive: -60.3% [inhibitor]"}, {"smiles": "O=c1[nH]cc([N+](=O)[O-])cc1Br", "Potency": "inconclusive: 25.1 µM [inhibitor, single point]"}, {"smiles": "COc1cccc(C(=O)NC2CCN(C(=O)N3c4ccccc4Sc4ccccc43)CC2)c1", "Potency": "inconclusive: 1.58 µM [inhibitor, full curve, poor fit]"}, {"smiles": "O=C(Nc1ccc2c(c1)CCCN2C(=O)c1cccs1)c1ccccc1", "Potency": "inactive"}, {"smiles": "CCn1cc(C(=O)N2CCn3c(nc4ccccc43)C2)c(=O)c2ccc(C)nc21", "Potency": "inconclusive: 89.1 µM [inhibitor, single point]"}, {"smiles": "Cc1c(/C=N/NC(=O)CNc2ccccc2)c2ccccn2c1C(=O)c1ccc(Cl)cc1", "activity, negative = inhibition": "inactive: -19.3% [at 102 µM]"}, {"smiles": "CCN1CCN(Cc2ccc(NC(=O)c3ccc(C)c(NC(=O)c4cc(-c5ccc(Br)cc5)n[nH]4)c3)cc2C(F)(F)F)CC1", "activity, negative = inhibition": "inconclusive: -80% [inhibitor]"}, {"smiles": "COC(=O)c1cccc(N(CC(=O)NC2CCCCC2)C(=O)CNC(=O)c2cccs2)c1", "activity, negative = inhibition": "inactive: 8.5% [at 102 µM]"}, {"smiles": "CCOc1ccc(C2C(C(=O)c3ccco3)=C(O)C(=O)N2CCN2CCOCC2)cc1", "note": "(stereo unspecified)", "Potency": "inconclusive: 79.4 µM [inhibitor, partial curve, poor fit]"}, {"smiles": "CCOCCCn1c(SCC(=O)Nc2ccc(C(N)=O)cc2)nc2ccccc2c1=O", "Potency": "inconclusive: 56.2 µM [inhibitor, partial curve, poor fit]"}, {"smiles": "COc1ccc(C(=O)NNC(=O)C2CCCO2)cc1", "note": "(stereo unspecified)", "activity, negative = inhibition": "inactive: 16.6%"}, {"smiles": "O=C1NN(c2ccc(F)cc2)C(=O)/C1=C\\C=C\\c1ccco1", "Potency": "inconclusive: 25.1 µM [inhibitor, single point]"}, {"smiles": "Cc1nc(N2CCCC2)c2c(C(=O)Nc3cccc(Cl)c3)c(C)oc2n1", "activity, negative = inhibition": "inactive: -11.1%"}, {"smiles": "O=C(NCCCc1ccccc1)c1ccc(Br)o1", "Potency": "inconclusive: 79.4 µM [inhibitor, partial curve, poor fit]"}, {"smiles": "CCOc1ccccc1CNC(=O)c1ccc2nc(N3CCOCC3)sc2c1", "Potency": "inconclusive: 89.1 µM [inhibitor, single point]"}, {"smiles": "N#CCc1ccc(Oc2ncc(C(F)(F)F)cc2Cl)cc1", "activity, negative = inhibition": "inactive: 47.7% [at 102 µM]"}, {"smiles": "CC(C)(C)c1ccc(OC(=O)Cn2c(C(F)(F)F)nc3ccccc32)cc1", "Potency": "inconclusive: 2 µM [inhibitor, partial curve, poor fit]"}, {"smiles": "CC(=O)NC(Cc1c[nH]c2ccccc12)C(=O)NCc1ccco1", "note": "(stereo unspecified)", "activity, negative = inhibition": "inactive: 8.8% [at 102 µM]"}, {"smiles": "C/C(=C\\C(=O)c1ccccc1)Nc1cccc(O)c1", "Potency": "active: 50.1 µM"}, {"smiles": "Cc1cc(N/N=C/c2ccncc2)nc2ccccc12", "activity, negative = inhibition": "inactive: -2.41% [at 102 µM]"}, {"smiles": "Cc1c(C(=O)NCc2cccc(Cl)c2)sc2nc[nH]c(=O)c12", "activity, negative = inhibition": "inactive: -0.35%"}, {"smiles": "CC(C)C(=O)Nc1nnc(CSCc2ccccc2F)s1", "activity, negative = inhibition": "inactive: 21.7% [at 102 µM]"}, {"smiles": "CC(CNC(=O)CCc1cn(Cc2ccccc2Cl)c2ccccc12)c1ccccc1", "note": "(stereo unspecified)", "Potency": "inconclusive: 7.08 µM [inhibitor, partial curve, poor fit]"}, {"smiles": "CCc1ccc(NC(=O)c2ccc(F)c(S(=O)(=O)N3CCN(c4ccc(OC)cc4)CC3)c2)cc1", "activity, negative = inhibition": "inactive: 0.387%"}, {"smiles": "CS(=O)(=O)c1ccccc1C(=O)Nc1cccc2ncccc12", "activity, negative = inhibition": "inactive: 3.15% [at 102 µM]"}, {"smiles": "O=[N+]([O-])c1c(NCCCO)cc(SCc2ccco2)c2nonc12", "Potency": "active: 8.91 µM"}, {"smiles": "CC1=Nn2c(nnc2-c2ccccn2)SC1", "activity, negative = inhibition": "inactive: -21% [at 12.7 µM]"}, {"smiles": "Cc1ccc(C2CC2C(=O)NNC(=S)Nc2ccc(Cl)cc2)cc1", "note": "(stereo unspecified)", "Potency": "active: 25.1 µM"}, {"smiles": "COC(=O)c1cn(C(=O)c2ccccc2F)nc1N", "Potency": "inconclusive: 25.1 µM [inhibitor, full curve]"}, {"smiles": "Cc1ccc(-n2c3nc(=O)[nH]c(=O)c-3cc3c(C)nn(-c4ccccc4)c32)cc1C", "activity, negative = inhibition": "inactive: 12.1%"}, {"smiles": "CC1CC(=O)C2=C(C1)Nc1ccccc1SC2c1ccc(F)cc1", "note": "(stereo unspecified)", "activity, negative = inhibition": "inactive: 1.09%"}, {"smiles": "COc1ccc2[nH]c(C)c(C(=O)CN3CCc4cc(OC)c(OC)cc4C3)c2c1", "Potency": "active: 50.1 µM"}, {"smiles": "COc1ccc(C(C#N)N2N=C(C)CC2c2ccccc2)cc1", "note": "(stereo unspecified)", "Potency": "active: 44.7 µM"}, {"smiles": "CCC(=O)NNC(=O)CCC(=O)Nc1ccc(C)cc1C", "activity, negative = inhibition": "inactive: 14.7% [at 102 µM]"}, {"smiles": "NC(=O)c1ccc(NC(=O)C2CC(=O)N(c3ccc4c(c3)OCCO4)C2)cc1", "note": "(stereo unspecified)", "activity, negative = inhibition": "inactive: 5.86% [at 12.7 µM]"}, {"smiles": "COc1ccc(CSc2n[nH]c(C)n2)cc1[N+](=O)[O-]", "activity, negative = inhibition": "inactive: -12.8%"}, {"smiles": "COc1ccccc1COCC(O)CN1CCN(S(=O)(=O)c2cccc(F)c2)CC1", "note": "(stereo unspecified)", "Potency": "inconclusive: 3.98 µM [inhibitor, single point]"}, {"smiles": "Cc1ccc(Sc2c(C)nn(C(=O)c3ccc(Cl)cc3)c2C)cc1", "activity, negative = inhibition": "inactive: 108%"}, {"smiles": "Cc1ccc(CNc2ccc(Cl)cc2[N+](=O)[O-])cc1", "Potency": "inconclusive: 6.31 µM [inhibitor, partial curve, poor fit]"}, {"smiles": "O=C(O)CC1NC(=O)N(C2CCCCC2)C1=O", "note": "(stereo unspecified)", "Potency": "inconclusive: 6.31 µM [inhibitor, single point]"}, {"smiles": "CSc1ccccc1C(=O)NC1CCCN(c2ccc(C(F)(F)F)cn2)C1", "note": "(stereo unspecified)", "Potency": "active: 8.91 µM"}, {"smiles": "O=C1c2ccccc2C(=O)N1c1cccc(-c2csc(Nc3ccc4c(c3)OCO4)n2)c1", "Potency": "active: 8.91 µM"}, {"smiles": "CCc1cnc2c(c1SCC(=O)c1ccc(Cl)cc1)c(=O)n(C)c(=O)n2C", "Potency": "inconclusive: 0.794 µM [inhibitor, partial curve, poor fit]"}, {"smiles": "CCOC(=O)C1=C(c2ccccc2)OC(N)=C(C#N)C1c1ccncc1", "note": "(stereo unspecified)", "Potency": "active: 44.7 µM"}, {"smiles": "Cn1c(SCC(=O)n2c3c(c4ccccc42)CCCC3)nnc1-c1ccccc1", "Potency": "inconclusive: 39.8 µM [inhibitor, single point]"}, {"smiles": "CC(=O)Oc1ccc2nc(-c3cccs3)oc(=O)c2c1", "activity, negative = inhibition": "inactive: 2.09% [at 0.501 µM]"}, {"smiles": "Cn1nc(-c2ccc(Cl)cc2)c2cc(C(=O)NCc3ccco3)sc21", "Potency": "inconclusive: 89.1 µM [inhibitor, single point]"}, {"smiles": "Cc1ccc(C23CC4CC(CC(C(=O)N5CCOCC5)(C4)C2)C3)cc1", "Potency": "inconclusive: 1.78 µM [inhibitor, full curve, poor fit]"}, {"smiles": "O=C(Nc1cccc(C(F)(F)F)c1)c1cc(-c2ccc3c(c2)OCCO3)on1", "activity, negative = inhibition": "inactive: -4.31%"}, {"smiles": "COc1ccccc1CNC(=O)C1CCC(=O)N1C(C)C", "note": "(stereo unspecified)", "activity, negative = inhibition": "inactive: 22.4% [at 102 µM]"}]}]}
